Experimental data taken from the supplement of paper PMC4967469.
pIC50: −log10 of the molar value. A lower IC50 marks a more sensitive line; a fit beyond the top or the lowest dose is shown as a bound at that dose. AUC is the area under the same curve over the 256-fold range up to the top dose, as a fraction: 1 means no effect, lower means more sensitive. For some of these results: An inferred top dose was calculated from the reported fits. For some of these results: An entry number marks a drug with two screens in the source, which often give different values.

Tests used:
Assay in all cases: Viability of human cancer cell lines after 72 h of drug (GDSC screen)
GDC0941 = compound: CS(=O)(=O)N1CCN(Cc2cc3nc(-c4cccc5[nH]ncc45)nc(N4CCOCC4)c3s2)CC1 [GDC0941]; conditions: top dose 4 µM; screen: GDSC drug entry 1527; top dose inferred
Protocol: (§1)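 Human cancer cell lines in 384-well plates, medium with 10% serum, drug for 72 h over a 256-fold dose range (nine 2-fold or five 4-fold steps up to the top dose). Adherent lines were fixed and stained with the nucleic acid dye Syto60, suspension lines read with resazurin; signal relative to control wells, capped at 0 and 100%. One two-parameter sigmoid per drug and line, fitted in a mixed model over all curves with the slope shared within a line.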

AR-42 = compound: CC(C)[C@H](C(=O)Nc1ccc(C(=O)NO)cc1)c1ccccc1 [AR-42]; conditions: top dose 5.12 µM; top dose inferred
Protocol: as §1

Pazopanib = compound: Cc1ccc(Nc2nccc(N(C)c3ccc4c(C)n(C)nc4c3)n2)cc1S(N)(=O)=O [Pazopanib]; conditions: top dose 8 µM
Protocol: as §1

MG-132 = compound: CC(C)C[C@@H](C=O)NC(=O)[C@H](CC(C)C)NC(=O)[C@H](CC(C)C)NC(=O)OCc1ccccc1 [MG-132]; conditions: top dose 1 µM
Protocol: as §1

CEP-701 = compound: C[C@]12O[C@H](C[C@]1(O)CO)n1c3ccccc3c3c4c(c5c6ccccc6n2c5c31)CNC4=O [CEP-701]; conditions: top dose 2 µM; top dose inferred
Protocol: as §1

SB 216763 = compound: Cn1cc(C2=C(c3ccc(Cl)cc3Cl)C(=O)NC2=O)c2ccccc21 [SB 216763]; conditions: top dose 10 µM; top dose inferred
Protocol: as §1

Row | Cell Line | AUC (GDC0941) | pIC50 (GDC0941) | AUC (AR-42) | pIC50 (AR-42) | AUC (Pazopanib) | pIC50 (Pazopanib) | AUC (MG-132) | pIC50 (MG-132) | AUC (CEP-701) | pIC50 (CEP-701) | AUC (SB 216763) | pIC50 (SB 216763)
1 | EW-18 (Ewing sarcoma, suspension) | 0.765 | 5.81 | 0.329 | 6.99 | 0.971 | < 5.10 | 0.892 | < 6.00 | 0.668 | 6.42 | 0.97 | < 5.00
2 | Farage (B-cell lymphoma, suspension) | 0.992 | < 5.40 | 0.427 | 6.68 | 0.957 | < 5.10 | 0.67 | 6.77 | 0.396 | 7.16 | 0.993 | < 5.00
3 | HCC1187 (breast, suspension) | 0.838 | 5.60 | 0.819 | 5.56 | 0.948 | < 5.10 | 0.975 | < 6.00 | 0.591 | 6.66 | 0.988 | < 5.00
4 | HCC1500 (breast, adherent) | 0.949 | < 5.40 | 0.526 | 6.42 | 0.943 | < 5.10 | 0.953 | < 6.00 | 0.965 | < 5.70 | 0.983 | < 5.00
5 | HCC2998 (large intestine, adherent) | 0.935 | < 5.40 | 0.673 | 6.02 | 0.988 | < 5.10 | 0.74 | 6.53 | 0.914 | < 5.70 | 0.987 | < 5.00
6 | HSC-39 (stomach, suspension) | 0.565 | 6.44 | 0.647 | 6.12 | 0.891 | 5.15 | 0.906 | < 6.00 | 0.361 | 7.26 | 0.958 | < 5.00
7 | HT (B-cell lymphoma, suspension) | 0.752 | 5.91 | 0.381 | 6.81 | 0.987 | < 5.10 | 0.821 | 6.29 | 0.802 | 6.05 | 0.99 | < 5.00
8 | HUTU-80 (digestive system, adherent) | 0.91 | 5.40 | 0.367 | 6.83 | 0.664 | 5.89 | 0.786 | 6.45 | 0.476 | 6.96 | 0.991 | < 5.00
9 | IMR-5 (neuroblastoma, adherent) | 0.921 | < 5.40 | 0.345 | 6.89 | 0.983 | < 5.10 | 0.992 | < 6.00 | 0.743 | 6.27 | 0.984 | < 5.00
10 | IST-SL1 (small cell lung carcinoma, semi-adherent) | 0.938 | < 5.40 | 0.263 | 7.18 | 0.978 | < 5.10 | 0.694 | 6.65 | 0.508 | 6.88 | 0.842 | 5.14
11 | JURL-MK1 (chronic myeloid leukaemia, suspension) | 0.942 | < 5.40 | 0.426 | 6.70 | 0.96 | < 5.10 | 0.889 | < 6.00 | 0.496 | 6.91 | 0.987 | < 5.00
12 | JiyoyeP-2003 (Burkitt lymphoma, suspension) | 0.952 | < 5.40 | 0.421 | 6.70 | 0.991 | < 5.10 | 0.882 | 6.08 | 0.621 | 6.59 | 0.991 | < 5.00
13 | K5 (thyroid, adherent) | 0.586 | 6.37 | 0.594 | 6.24 | 0.976 | < 5.10 | 0.879 | 6.02 | 0.435 | 7.08 | 0.966 | < 5.00
14 | KELLY (neuroblastoma, adherent) | 0.776 | 5.84 | 0.398 | 6.76 | 0.983 | < 5.10 | 0.737 | 6.56 | 0.397 | 7.17 | 0.958 | < 5.00
15 | KM-H2 (Hodgkin lymphoma, suspension) | 0.992 | < 5.40 | 0.984 | < 5.29 | 0.981 | < 5.10 | 0.686 | 6.72 | 0.962 | < 5.70 | 0.985 | < 5.00
16 | KMOE-2 (acute myeloid leukaemia, suspension) | 0.715 | 6.03 | 0.369 | 6.84 | 0.99 | < 5.10 | 0.815 | 6.32 | 0.491 | 6.93 | 0.988 | < 5.00
17 | KNS-42 (glioma, adherent) | 0.9 | < 5.40 | 0.673 | 5.97 | 0.918 | < 5.10 | 0.456 | 7.33 | 0.888 | < 5.70 | 0.981 | < 5.00
18 | KNS-81-FD (glioma, adherent) | 0.775 | 5.66 | 0.61 | 6.15 | 0.924 | < 5.10 | 0.721 | 6.47 | 0.762 | 6.02 | 0.975 | < 5.00
19 | KY821 (leukaemia, suspension) | 0.886 | 5.47 | 0.565 | 6.33 | 0.98 | < 5.10 | 0.992 | < 6.00 | 0.626 | 6.58 | 0.988 | < 5.00
20 | L-540 (Hodgkin lymphoma, suspension) | 0.935 | < 5.40 | 0.977 | < 5.29 | 0.968 | < 5.10 | 0.703 | 6.67 | 0.352 | 7.29 | 0.988 | < 5.00
21 | LAN-6 (neuroblastoma, adherent) | 0.944 | < 5.40 | 0.862 | < 5.29 | 0.982 | < 5.10 | 0.744 | 6.44 | 0.821 | 5.84 | 0.96 | < 5.00

Row | Cell Line | AUC (GDC0941) | pIC50 (GDC0941) | AUC (AR-42) | pIC50 (AR-42) | AUC (Pazopanib) | pIC50 (Pazopanib) | AUC (MG-132) | pIC50 (MG-132) | AUC (CEP-701) | pIC50 (CEP-701) | AUC (SB 216763) | pIC50 (SB 216763)
22 | LB771-HNC (head and neck, adherent) | 0.707 | 5.95 | 0.679 | 5.94 | 0.919 | < 5.10 | 0.531 | 7.11 | 0.901 | < 5.70 | 0.933 | < 5.00
23 | LB831-BLC (bladder, adherent) | 0.859 | 5.47 | 0.627 | 6.14 | 0.685 | 5.78 | 0.704 | 6.63 | 0.843 | 5.84 | 0.911 | < 5.00
24 | LB2241-RCC (kidney, adherent) | 0.518 | 6.55 | 0.776 | 5.64 | 0.949 | < 5.10 | 0.646 | 6.78 | 0.512 | 6.87 | 0.818 | 5.19
25 | LB2518-MEL (melanoma, adherent) | 0.892 | < 5.40 | 0.599 | 6.22 | 0.935 | < 5.10 | 0.416 | 7.44 | 0.646 | 6.49 | 0.982 | < 5.00
26 | LC4-1 (lymphoblastic leukaemia, suspension) | 0.941 | < 5.40 | 0.332 | 6.99 | 0.93 | < 5.10 | 0.779 | 6.34 | 0.874 | < 5.70 | 0.985 | < 5.00
27 | LS-411N (large intestine, adherent) | 0.881 | < 5.40 | 0.361 | 6.92 | 0.955 | < 5.10 | 0.742 | 6.44 | 0.647 | 6.46 | 0.981 | < 5.00
28 | LS-513 (large intestine, adherent) | 0.863 | 5.43 | 0.688 | 5.96 | 0.987 | < 5.10 | 0.987 | < 6.00 | 0.723 | 6.26 | 0.955 | < 5.00
29 | LU-65 (large cell lung carcinoma, suspension) | 0.951 | < 5.40 | 0.66 | 6.01 | 0.98 | < 5.10 | 0.889 | < 6.00 | 0.987 | < 5.70 | 0.987 | < 5.00
30 | LU-134-A (small cell lung carcinoma, suspension) | 0.883 | < 5.40 | 0.482 | 6.55 | 0.961 | < 5.10 | 0.882 | < 6.00 | 0.711 | 6.29 | 0.986 | < 5.00
31 | LU-139 (small cell lung carcinoma, suspension) | 0.938 | < 5.40 | 0.435 | 6.69 | 0.942 | < 5.10 | 0.796 | 6.20 | 0.884 | < 5.70 | 0.978 | < 5.00
32 | LXF-289 (lung adenocarcinoma, adherent) | 0.599 | 6.33 | 0.609 | 6.20 | 0.926 | < 5.10 | 0.58 | 6.99 | 0.599 | 6.63 | 0.961 | < 5.00
33 | MC116 (B-cell lymphoma, suspension) | 0.758 | 5.98 | 0.383 | 6.78 | 0.997 | < 5.10 | 0.92 | 6.17 | 0.728 | 6.35 | 0.999 | < 5.00
34 | ME-1 (acute myeloid leukaemia, suspension) | 0.988 | < 5.40 | 0.402 | 6.77 | 0.989 | < 5.10 | 0.878 | < 6.00 | 0.851 | 5.77 | 0.988 | < 5.00
35 | MFH-ino (soft tissue, adherent) | 0.857 | < 5.40 | 0.607 | 6.18 | 0.88 | < 5.10 | 0.667 | 6.70 | 0.593 | 6.63 | 0.978 | < 5.00
36 | MHH-PREB-1 (B-cell leukaemia, suspension) | 0.404 | 6.85 | 0.295 | 7.04 | 0.921 | < 5.10 | 0.958 | < 6.00 | 0.521 | 6.85 | 0.988 | < 5.00
37 | ML-2 (acute myeloid leukaemia, suspension) | 0.867 | 5.53 | 0.505 |  | 0.962 | < 5.10 | 0.597 | 6.95 | 0.619 | 6.59 | 0.979 | < 5.00
38 | MLMA (hairy cell leukaemia, semi-adherent) | 0.496 | 6.61 | 0.313 | 7.02 | 0.935 | < 5.10 | 0.95 | < 6.00 | 0.532 | 6.82 | 0.986 | < 5.00
39 | MMAC-SF (melanoma, adherent) | 0.719 | 5.97 | 0.822 | 5.50 | 0.979 | < 5.10 | 0.532 | 7.11 | 0.414 |  | 0.987 | < 5.00
40 | MN-60 (B-cell leukaemia, suspension) | 0.752 | 5.86 | 0.374 | 6.85 | 0.965 | < 5.10 | 0.94 | < 6.00 | 0.848 | 5.80 | 0.982 | < 5.00
41 | MONO-MAC-6 (acute myeloid leukaemia, suspension) | 0.692 | 6.05 | 0.402 | 6.77 | 0.87 | < 5.10 | 0.827 | 6.18 | 0.173 | 7.92 | 0.978 | < 5.00
42 | MS-1 (small cell lung carcinoma, suspension) | 0.946 | < 5.40 | 0.327 | 6.95 | 0.97 | < 5.10 | 0.991 | < 6.00 | 0.953 | < 5.70 | 0.99 | < 5.00
